# Experimental data reported in the supplement of paper PMC10037445.
# In all, about 2,900 compounds were measured (“IRF Lucia reporter activity, fold change vs agonist alone”: median about 0.9, highest 2% from about 2.8 on). The list shows a part of the results.
# Tests used:
# [1] = system: RAW-Dual; experiment: IRF Lucia reporter activity, fold change vs agonist alone; cytotoxicity flag (confluency mask): not cytotoxic; higher = enhanced IRF activity
# How it was run: (§1)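 Cytotoxic wells were those whose IncuCyte confluency was below 70% of agonist controls in both mask sets. The cells were RAW-Dual macrophages at 50,000 cells/well in DMEM on 384-well plates, dosed with 50 nL of library stock by pin tool, stimulated with a PRR agonist 1 h later, and kept at 37 °C, 5% CO2 for 20 hours. IRF and NF-κB reporter activity, as fold change over agonist-alone wells, came from supernatant read by QuantiLuc luminescence and QuantiBlue absorbance, respectively.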
# [2] = system: RAW-Dual; experiment: IRF Lucia reporter activity, fold change vs agonist alone; higher = enhanced IRF activity; conditions: library stock concentration (final ~1000-fold dilution): 10 mM, agonist: MPLA (TLR4) […]
# How it was run: as §1
# [3] = system: RAW-Dual; experiment: IRF Lucia reporter activity, fold change vs agonist alone; cytotoxicity flag (confluency mask): cytotoxic (confluency <70% of control); higher = enhanced IRF activity
# How it was run: as §1
# [4] = agonist: 3'3'-cGAMP (STING) 10 ug/mL
# [5] = cytotoxicity flag (confluency mask): not cytotoxic
compound,measurement,setting,value
CC(C)C(=O)c1c(C(C)C)nn2ccccc12 (library stock concentration (final ~1000-fold dilution): 10 mM),IRF Lucia reporter activity,[1]; [4],0.861
same,IRF Lucia reporter activity,[1]; agonist: LPS (TLR4) 0.1 ug/mL,1.03
CC(C)C(=O)c1c(C(C)C)nn2ccccc12,IRF Lucia reporter activity,[2]; [5],1.04
Nc1nc(N)c2nc(-c3ccccc3)c(N)nc2n1,IRF Lucia reporter activity,[2]; [5],1.06
Nc1nc(N)c2nc(-c3ccccc3)c(N)nc2n1 (library stock concentration (final ~1000-fold dilution): 10 mM),IRF Lucia reporter activity,[1]; [4],0.772
same,IRF Lucia reporter activity,[1]; agonist: LPS (TLR4) 0.1 ug/mL,1.19
CCO.N#CC(=C(\N)Sc1ccccc1N)/C(C#N)=C(/N)Sc1ccccc1N (library stock concentration (final ~1000-fold dilution): 10 mM),IRF Lucia reporter activity,[1]; [4],0.574
same,IRF Lucia reporter activity,[1]; agonist: LPS (TLR4) 0.1 ug/mL,2.43
CCO.N#CC(=C(\N)Sc1ccccc1N)/C(C#N)=C(/N)Sc1ccccc1N,IRF Lucia reporter activity,[2]; [5],2.65
Brc1ccc2[nH]ccc2c1,IRF Lucia reporter activity,[2]; [5],1.34
Brc1ccc2[nH]ccc2c1 (library stock concentration (final ~1000-fold dilution): 10 mM),IRF Lucia reporter activity,[1]; [4],0.947
same,IRF Lucia reporter activity,[1]; agonist: LPS (TLR4) 0.1 ug/mL,1.72
COc1ccc(CCC(=O)c2c(O)cc(O[C@@H]3O[C@H](CO)[C@@H](O)[C@H](O)[C@H]3O[C@@H]3O[C@@H](C)[C@H](O)[C@@H](O)[C@H]3O)cc2O)cc1O (library stock concentration (final ~1000-fold dilution): 10 mM),IRF Lucia reporter activity,[1]; [4],0.994
same,IRF Lucia reporter activity,[1]; agonist: LPS (TLR4) 0.1 ug/mL,1.08
CC(C)(C)CC(C)(C)c1ccc(OCCOCC[N+](C)(C)Cc2ccccc2)cc1,IRF Lucia reporter activity,[2]; cytotoxicity flag (confluency mask): cytotoxic (confluency <70% of control),1.66
CC(C)(C)CC(C)(C)c1ccc(OCCOCC[N+](C)(C)Cc2ccccc2)cc1 (library stock concentration (final ~1000-fold dilution): 10 mM),IRF Lucia reporter activity,[3]; [4],0.298
same,IRF Lucia reporter activity,[3]; agonist: LPS (TLR4) 0.1 ug/mL,1.17
O=C(O)c1cc(I)ccc1NC(=O)C(Cc1ccccc1)NCc1ccccc1 (stereo not given) (library stock concentration (final ~1000-fold dilution): 10 mM),IRF Lucia reporter activity,[1]; [4],1.17
same,IRF Lucia reporter activity,[1]; agonist: LPS (TLR4) 0.1 ug/mL,1.41
O=C(O)c1cc(I)ccc1NC(=O)C(Cc1ccccc1)NCc1ccccc1 (stereo not given),IRF Lucia reporter activity,[2]; [5],1.05
CC(C(=O)Nc1cccc(N=Cc2c(O)ccc3ccccc23)c1)c1ccccc1 (stereo not given) (library stock concentration (final ~1000-fold dilution): 10 mM),IRF Lucia reporter activity,[1]; [4],0.0926
same,IRF Lucia reporter activity,[1]; agonist: LPS (TLR4) 0.1 ug/mL,1.6
Cc1cc2c(C(=O)NCC(C)c3ccccc3)c(O)c(O)cc2c(O)c1-c1c(C)cc2c(C(=O)NCC(C)c3ccccc3)c(O)c(O)cc2c1O (stereo not given) (library stock concentration (final ~1000-fold dilution): 10 mM),IRF Lucia reporter activity,[1]; [4],0.11
same,IRF Lucia reporter activity,[1]; agonist: LPS (TLR4) 0.1 ug/mL,0.993
COc1ccc(CCC(=O)Nc2nc3ccc(Cl)cc3s2)cc1OC (library stock concentration (final ~1000-fold dilution): 10 mM),IRF Lucia reporter activity,[1]; [4],1.06
same,IRF Lucia reporter activity,[1]; agonist: LPS (TLR4) 0.1 ug/mL,1.04
COc1ccc(CCC(=O)Nc2nc3ccc(Cl)cc3s2)cc1OC,IRF Lucia reporter activity,[2]; [5],1.09
CCN(CC)CCOCCOC(=O)C1(c2ccccc2)CCCC1,IRF Lucia reporter activity,[2]; [5],1.08
CCN(CC)CCOCCOC(=O)C1(c2ccccc2)CCCC1 (library stock concentration (final ~1000-fold dilution): 10 mM),IRF Lucia reporter activity,[1]; [4],0.82
same,IRF Lucia reporter activity,[1]; agonist: LPS (TLR4) 0.1 ug/mL,1.24
CCN(CC)C(=O)C1(c2ccccc2)CC1CN (stereo not given) (library stock concentration (final ~1000-fold dilution): 10 mM),IRF Lucia reporter activity,[1]; [4],1.04
same,IRF Lucia reporter activity,[1]; agonist: LPS (TLR4) 0.1 ug/mL,0.8
CCN(CC)C(=O)C1(c2ccccc2)CC1CN (stereo not given),IRF Lucia reporter activity,[2]; [5],1.02
CCC(C)C(=O)OC1CC(C)C=C2C=CC(C)C(CCC3CC(O)CC(=O)O3)C21 (stereo not given) (library stock concentration (final ~1000-fold dilution): 10 mM),IRF Lucia reporter activity,[1]; [4],0.497
same,IRF Lucia reporter activity,[1]; agonist: LPS (TLR4) 0.1 ug/mL,0.764
CCC(C)C(=O)OC1CC(C)C=C2C=CC(C)C(CCC3CC(O)CC(=O)O3)C21 (stereo not given),IRF Lucia reporter activity,[2]; [5],0.744
CN(C)CCCN1c2ccccc2CCc2ccc(Cl)cc21.Cl (library stock concentration (final ~1000-fold dilution): 10 mM),IRF Lucia reporter activity,[1]; [4],1.03
same,IRF Lucia reporter activity,[1]; agonist: LPS (TLR4) 0.1 ug/mL,1.11
CN(C)CCCN1c2ccccc2CCc2ccc(Cl)cc21.Cl,IRF Lucia reporter activity,[2]; [5],1.28
COc1cc2nc(N3CCN(C(=O)C4COc5ccccc5O4)CC3)nc(N)c2cc1OC (stereo not given),IRF Lucia reporter activity,[2]; [5],1.61
COc1cc2nc(N3CCN(C(=O)C4COc5ccccc5O4)CC3)nc(N)c2cc1OC (stereo not given) (library stock concentration (final ~1000-fold dilution): 10 mM),IRF Lucia reporter activity,[1]; [4],0.355
same,IRF Lucia reporter activity,[1]; agonist: LPS (TLR4) 0.1 ug/mL,1.73
N#C/C(=C(/N)Sc1ccc(N)cc1)c1ccccc1C(F)(F)F (library stock concentration (final ~1000-fold dilution): 10 mM),IRF Lucia reporter activity,[1]; [4],0.935
same,IRF Lucia reporter activity,[1]; agonist: LPS (TLR4) 0.1 ug/mL,2.34
N#C/C(=C(/N)Sc1ccc(N)cc1)c1ccccc1C(F)(F)F,IRF Lucia reporter activity,[2]; [5],2.5
